Data on 15 molecules can be found in the supplement of paper PMC10300432.

The chains are these.
B1: C5195 (protein)
chain 1: QLQLQESGPGLVKPSETLSLTCTVSSGSLSIGSYFWGWVRQSPVKGLEWMGSISHSGTTYYNPSLKSRVSVSIDTSKNQFSLKLSSVTAADTSLYYCARHLGAFDSWGQGTLVTVSS
chain 2: DIQMTQSPSSLSASVGDRVTITCRASQGISNSLAWYQQKSGKAPNLLLYSASTLESGVPSRFSGSGSGTDFTLTINSLQPEDFATYYCQQYYSTPPVTFGPGTKVDIK
B2: C5200 (protein)
chain 1: QLQLQESGPGLVKPSETLSLTCTVSGGSISIGSYYWAWIRQPPEKRLEWIGNVHNRGSTYYNPSLHSRVTISADTSKNQVSLRLSSVTAADTAVYFCARQLGPVDYWGQGILVTVSS
chain 2: B1 chain 2 with G28A, Q37L, S40P, N45K, S50A, N76S, T94P, V97T, P101Q, D106E
B3: C5042 (protein)
chain 1: QVQLVQSGAEVKKPGASVKVSCKASGYTFTSYGISWVRQAPGQGLEWMGWISAYSGDTNYAQKLHDRVTMTTDTSTSTVYMELRSLRSDDTAVYYCARVGSAYCSTGSCYYFDYWGQGTLVTVSS
chain 2: EIVMTQSPATLSVSPGERATLSCRASQSISDNLAWYQQKPGQAPRLLMYGASTRATGIPARFSGSGSGTEFTLTISSLQSEDFAVYYCQPYDNWPPWFTFGPGSRVEIK
B4: C5199 (protein)
chain 1: QVQLQESGPGVVKPSGTLSLTCVVAGGSISGISWWSWVRQSPGKGLEWIGEISHSGSTAYNPSLMSRVTISVDKSKSQFSLKLTSMTAADTAVYFCARVSGFFDYWGQGTLVTVSS
chain 2: DIQMTQSPSSLSASVGDRVTITCRVSQDIGRSLAWYQQKPGKAPKLLVYEASTLESGVPSRFSGRRSGTDYILTINSLQPDDFATYYCQQYFTTRGFGGGTKVEIK
B5: C5203 (protein)
chain 1: EVQLVESGGGLVQPGGSLRLSCAASGVIVSRNYMNWVRQPPGKGLEWVSVIYSGGSTFYADSVKGRFTISRHDSKNTLFLQMNSLETEDTAVYYCARGGGHYYGMDVWGQGTTVTVSS
chain 2: DIQLTQSPSFLSASVGDRVTITCRASQGISDYLAWYQQKPGKAPKLLIYGASTLQRGVPSRFSGSGSETEFTLTISNLQPEDFATYYCQQLNSNPPFPFGPGTKVDIK
B6: C5202 (protein)
chain 1: QVQLVESGGGVVQPGKSLRLSCEASGFTFRHYAMHWVRQAPGKGLEWVAFISYDGDKEYYADSVKGRYTISRDNSKNTLFLQINSLRAEDTAVFYCAKMGGGPYYENGGYFDYWGQGTLVTVSS
chain 2: DIQMTQSPSSLSASVGDRITITCQASQDISNSLNWYQQKPGKAPKLLIYEASNLETGVPSRFSGSGSGTDFSFTISSLQPEDFATYYCQHYDYPPLYTFGQGTKLEIK
B7: C5194 (protein)
chain 1: EVQLLESGGALVQPGGSLRLSCAASGFTFSNYVMNWVRQAPGKGLEWVSAISGSGGNVDYADSVKGRFTISRDNSKNTLYLQMNSLRAEDTAVYYCAKGDLLWSGELFWSYYGMDVWGQGTTVTVSS
chain 2: QSVLTQPPSASGTPGQRVTISCSGSSSNIGNNFVNWYQQLPGTAPKLLIYSNNQRPSGVPDRFSGSKSGTSASLAINGLQSEDEADYYCAAWDDSLNGVEFGGGTKLTVL
B8: C5193 (protein)
chain 1: EVQLLEFGGGLVQPGGSLRISCAASGFTFSSLAMGWVRQAPGKGLEYVSGISGRGERTDYADSVKGRFTISRDNSQNTLFLQMDSLRADDTAVYYCVKSAFGLVQGEEFDYWGQGTLVTVSS
chain 2: DIQMTQSPSTLSTSVGDRVTITCRARQSIGNWLAWYQQTPGKAPKLLIYKASSLQSGVPSRFSGSGSGTEFTLTISSLQPDDFATYYCQQYTSSSTFGQGTKVEIK
B9: C5192 (protein)
chain 1: EVQLLESGGALVQPGGSLRLSCAASGFTFSSYAMSWVRQAPGKGLEWVSGIGGRGADTYYADSVKGRFTISRDNSKNTMFLQMNSLRAEDTAVYYCAKDPLWVQPDYFDYWGQGTLVTVSS
chain 2: DIQMTQSPSSVSASVGDRVTITCRASQGIGSWLAWYQQKPGKAPKLLIYAASSLESGVPSRFSGSGSGTEFTLTISSLQPEDFATYYCQEASSLLLTFGGGTKVEIK
B10: C5204 (protein)
chain 1: QVQLVQSGAEVKKPGSSVKVSCKTSGGTFSSYTISWVRQAPGQGLEWMGRIIPALHIPNYAQRFQDRVTFTADKSTSTAYMELSSLRSEDTAVYYCARDRSSSGWGNWFDPWGQGTLVTVSS
chain 2: QSVLTQPPSVSGAPGQRVTLSCTGSNSNIGAGYDVHWYQQLPGTAPKLLIYGNNNRPSGVPDRFSGSKSDSSASLAITGLQAEDEADYYCQSYDSSLTDVFGTGTKVTVL
B11: C5206 (protein)
chain 1: QVQLVESGGGVVQPGRSLRLSCAASGFTFSSSAMHWVRQTPGRGPEWVAVISHEGSQKYYVDSVKGRFTISRDNAKNTLYLQMNSLRAEDTAVYYCARWGRHPIYDSSGYPSYYYYGMDVWGQGTTVTVSS
chain 2: DIQMTQSPVSLPVSVGDRVTITCRASQDISNYLNWYQQKPGRAPKLLIYDASNLETGVPSRFSGSGSGTDFTFTISSLQPEDIATYYCQQYDDLPYTFGQGTKLDIK
B12: C5196 (protein)
chain 1: QVQLQESGPGLVKPSVTLSLTCAVSGGSISGPAWWGWVRQPPGKGLEWIGEISDGGKAEYNPSLKGRLTIGVDRSRNLFSLKLSSLTAADTAVYYCARVMGIFDYWGQGSLVTVSS
chain 2: DIQMTQSPASLSASVGDRVTITCRVSQGIGNSLAWYQQKPGKAPKLLLYASSTLESGVPSRFSGSGSGTDFTLTISSLQPEDFATYYCQQYYSFRTFGQGTKVEIK
B13: C5197 (protein)
chain 1: QVQLVETGGGVVQPGSSLRLSCAASGFSFSGYGMHWVRQAPGKGLEWVAASWADGRNKFYGESVRGRFTISRDNSKSTLYLQMTSLGAEDTAVYYCARGEHVVMATAMPGYYFDYWGQGTLVTVSS
chain 2: DIQMTQSPSTLSASVGDRVTITCRASQSISTWLAWYQQKPGKAPKLLIYKASYLESGVPSRFSGSGSGTEFTLTISSLLPDDFATYYCQQYNSYSTFGQGTKLEIK
B14: C5201 (protein)
chain 1: QVQLVESGGGVVQPGRSLRLSCAASGFSFRNHAMNWVRQAPGKGPEWVGVIAYDGSSKWYADSVKGRFTISRDNSKNTLILQMTSLRPEDTAVYYCARDWMRAPYDSNGVDAFDVWGHGTMVTVSS
chain 2: DIQMTQSPSSLSASVGDRVTIACRASQSVGNYLNWYQQKPGKAPNLLIYAASTLHSGVPSRFSGSGSGTDFTLTISSLQPEDFATYYCQQSYTTLALTFGGGTKVEIK
B15: C5191 (protein)
chain 1: EVQLVQPGAEMKRPGESLKISCKASGYNFHYSWIGWVRQMPGKGLEWMGFIYPGDSDTRYSPSFQGQVTISADKSISTAYLQWSSLKASDTAMYYCTRLGGTVTNREYFQHWGQGTLVTVSS
chain 2: DIQMTQSPSSLSASVGDRVTITCQASQDINNYLNWYQQKPGKAPKLLIYDASNLETGVPSRFSGGGSGTDFTFTISSLQPEDIATYYCQQFHLLPLTFGGGTKVEIK

Positions count from the first letter of the chain named. Recombinant human monoclonal antibodies (heavy:light variable regions). ELISA EC50 on the named antigen, from 10 µg/ml down; IC50 against spike pseudovirus on HT1080-ACE2 cells, 48 h; lower = stronger. Calls: IC50 above 1,000 ng/ml = non-neutralizing; EC50 above 1,000 ng/ml = non-binder.

The target of the first test is SARS-CoV-2 Omicron BA.1 spike pseudovirus. The test can be described thus: pseudovirus neutralization IC50; higher = weaker neutralization. As to the method: (§1)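 Single-round luciferase reporter pseudovirus mixed with antibody dilutions and put on HT1080-ACE2 clone 14 cells for 48 h; signal relative to no-antibody wells, four-parameter fit.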
Take B1: the “pseudovirus neutralization IC50” value is greater than 1000 ng/mL.
As for B2, the “pseudovirus neutralization IC50” value is greater than 1000 ng/mL.
Still for that read-out and setting: to B3 belongs 88.7 ng/mL.
Still for that read-out and setting: to B4 belongs 1.65 ng/mL; to B5, greater than 1000 ng/mL.
On the same count and under the same terms, to B6 belongs greater than 1000 ng/mL; to B7, 247 ng/mL.
For the molecule B8, the “pseudovirus neutralization IC50” value worked out at 8.57 ng/mL.
In the case of B9, the “pseudovirus neutralization IC50” value was 2.33 ng/mL.
Same read-out and setting: under B10 stands 46.5 ng/mL; under B11, greater than 1000 ng/mL; under B12, 1.61 ng/mL.
Turning to B13, the “pseudovirus neutralization IC50” value was determined as 4.17 ng/mL.
In the case of B14, the “pseudovirus neutralization IC50” value is greater than 1000 ng/mL.
As for B15, the “pseudovirus neutralization IC50” value stood at 0.821 ng/mL.

The next test deals with SARS-CoV-2 Omicron BA.4/5 spike pseudovirus. The description is as above. As to the method:
as §1
Turning to B1, the “pseudovirus neutralization IC50” value was greater than 1000 ng/mL.
B2: the “pseudovirus neutralization IC50” value is greater than 1000 ng/mL.
Same read-out and setting: to B3 belongs 365 ng/mL.
Still for that read-out and setting: to B4 belongs 4.75 ng/mL; to B5, greater than 1000 ng/mL.
For the molecule B6, the “pseudovirus neutralization IC50” value was greater than 1000 ng/mL.
With B7, the “pseudovirus neutralization IC50” value worked out at 260 ng/mL.
B8: the “pseudovirus neutralization IC50” value is 13.1 ng/mL.
Consider B9, for which the “pseudovirus neutralization IC50” value is greater than 1000 ng/mL.
On to B10, for which the “pseudovirus neutralization IC50” value was greater than 1000 ng/mL.
On the same count and under the same terms, under B11 stands greater than 1000 ng/mL; under B12, 13.2 ng/mL.
For the molecule B13, the “pseudovirus neutralization IC50” value was greater than 1000 ng/mL.
Regarding B14, the “pseudovirus neutralization IC50” value is greater than 1000 ng/mL.
On the same count and under the same terms, under B15 stands 0.721 ng/mL.

The target of another test is SARS-CoV-2 Wuhan-Hu-1 spike pseudovirus. The test is described as above. The method, then:
as §1
With B1, the “pseudovirus neutralization IC50” value stood at 1.15 ng/mL.
The same measure, in the same setting: to B2 belongs 1.96 ng/mL.
As for B3, the “pseudovirus neutralization IC50” value was 89.7 ng/mL.
The same measure, in the same setting: under B4 stands 1.6 ng/mL.
As for B5, the “pseudovirus neutralization IC50” value stood at 37.4 ng/mL.
B6: the “pseudovirus neutralization IC50” value turned out to be 896 ng/mL.
B7: the “pseudovirus neutralization IC50” value was 48.6 ng/mL.
With B8, the “pseudovirus neutralization IC50” value amounted to 3.59 ng/mL.
Same read-out and setting: to B9 belongs 1.4 ng/mL; to B10, 17.9 ng/mL; to B11, 5.37 ng/mL.
The same measure, in the same setting: to B12 belongs 1.62 ng/mL; to B13, 3.31 ng/mL; to B14, 563 ng/mL.
With B15, the “pseudovirus neutralization IC50” value is 1.57 ng/mL.

Another test concerns the target SARS-CoV-2 Wuhan-Hu-1 spike receptor-binding domain. The test can be described thus: ELISA binding EC50; higher = weaker binding; ELISA of recombinant human antibody on coated antigen, from 10 µg/ml in fourfold dilutions; four-parameter fit. (An ELISA detects its analyte on a solid surface through an enzyme-linked reagent.)
Take B1: the “ELISA binding EC50” value was found to be 2.38 ng/mL.
As for B2, the “ELISA binding EC50” value amounted to 3.3 ng/mL.
Turning to B3, the “ELISA binding EC50” value was determined as 5.06 ng/mL.
Still for that read-out and setting: to B4 belongs 2.35 ng/mL; to B5, 6.04 ng/mL; to B6, 3.78 ng/mL.
On the same count and under the same terms, to B7 belongs 2.6 ng/mL; to B8, 2.05 ng/mL; to B9, 2.09 ng/mL.
As for B10, the “ELISA binding EC50” value was determined as 3.44 ng/mL.
Consider B11, for which the “ELISA binding EC50” value was 4.14 ng/mL.
The same measure, in the same setting: to B12 belongs 2.51 ng/mL; to B13, 2.89 ng/mL.
B14: the “ELISA binding EC50” value came out at 3.77 ng/mL.
On to B15, for which the “ELISA binding EC50” value came out at 2.94 ng/mL.
